# Results from the supplement of paper PMC7125110.
# ± gives the standard error. Variants at the floor of the assay are shown more often than the library holds them.
# B1: glmS ribozyme (parent)
# chain: AUAAAAGCGCCAGAACUACAGAAAUGUAGUUGACGAGGAGGAGGUUUAUCGAAUUUUCGGCGGAUGCCUCCAAA
# What was measured:
# Conditions in all cases: with glucosamine-6-phosphate
# glucosamine-6-phosphate [1] = variants of: B1; assay: self-cleavage kobs at 640 uM GlcN6P; higher = faster cleavage; RNA array
# Summary of the method: (§1)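 Sequenced MiSeq chips were the platform: E. coli RNA polymerase transcribed barcoded ribozyme variants on them in situ, and a hybridised Cy3 probe tracked these at 37 °C. After glucosamine-6-phosphate (40 μM to 10 mM) in HEPES/KCl/Mg(OAc)2 buffer was flowed in, tiles were imaged over ~14 h. Signals normalised to baseline and to non-cleaving reference variants were reduced to per-tile medians and fit to one- or two-exponential decays to obtain kobs. kcat and KM were derived through weighted Michaelis–Menten fits across concentrations.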
# glucosamine-6-phosphate [2] = variants of: B1; assay: self-cleavage kobs at 2500 uM GlcN6P; higher = faster cleavage; RNA array
# Summary of the method: as §1
# glucosamine-6-phosphate [3] = variants of: B1; assay: self-cleavage kobs at 10000 uM GlcN6P; higher = faster cleavage; RNA array
# Summary of the method: as §1
# glucosamine-6-phosphate [4] = variants of: B1; assay: self-cleavage kobs at 160 uM GlcN6P; higher = faster cleavage; RNA array
# Summary of the method: as §1
Variant,self-cleavage kobs at 640 uM GlcN6P (glucosamine-6-phosphate [1]),self-cleavage kobs at 2500 uM GlcN6P (glucosamine-6-phosphate [2]),self-cleavage kobs at 10000 uM GlcN6P (glucosamine-6-phosphate [3]),self-cleavage kobs at 160 uM GlcN6P (glucosamine-6-phosphate [4])
G9C A15C G32U G40C G66C,< 1e-05 s⁻¹,,,
C8U C11U G29U A42G G60C,< 1e-05 s⁻¹,< 1e-05 s⁻¹,,
C8G A36G G60U,< 1e-05 s⁻¹,,,
C11U C34G,< 1e-05 s⁻¹,< 1e-05 s⁻¹,< 1e-05 s⁻¹,
C10G G44U C70U,< 1e-05 s⁻¹,,,
C8A G38A G41A,< 1e-05 s⁻¹,< 1e-05 s⁻¹,,< 1e-05 s⁻¹
C8G A48U G63C C71A,< 1e-05 s⁻¹,,,
C11U U30C U31G C34A U49C,< 1e-05 s⁻¹,< 1e-05 s⁻¹,,
G9A C10G G44A C70U,< 1e-05 s⁻¹,< 1e-05 s⁻¹,,
C8G G38C G62C A64U,< 1e-05 s⁻¹,,,
G9C U65A C68G,0.000522 ± 0.00017 s⁻¹,,6.3e-05 ± 2.2e-05 s⁻¹,
C11A A33G A48C C67U,< 1e-05 s⁻¹,< 1e-05 s⁻¹,,
A12C C34G G66C,< 1e-05 s⁻¹,,,
C11A A36C U57C,< 1e-05 s⁻¹,< 1e-05 s⁻¹,,
C11U U31A A48U U54G G63U,< 1e-05 s⁻¹,< 1e-05 s⁻¹,,< 1e-05 s⁻¹
A12U A48G,9.16e-05 ± 1.3e-05 s⁻¹,0.000246 ± 3e-05 s⁻¹,0.000156 ± 1.5e-05 s⁻¹,2.8e-05 ± 1.2e-05 s⁻¹
C8U A33C A36U A53U,< 1e-05 s⁻¹,< 1e-05 s⁻¹,,
C8G G35A G44C,< 1e-05 s⁻¹,,< 1e-05 s⁻¹,
C10G G13U A15C,< 1e-05 s⁻¹,,,< 1e-05 s⁻¹
G9U A39C U47A U49G U54G,< 1e-05 s⁻¹,,,
G9C C16U,< 1e-05 s⁻¹,< 1e-05 s⁻¹,< 1e-05 s⁻¹,< 1e-05 s⁻¹
G9U A52U,< 1e-05 s⁻¹,,,< 1e-05 s⁻¹
C11G G13A A39U,< 1e-05 s⁻¹,,,
C8U A42C G62U C71G,< 1e-05 s⁻¹,< 1e-05 s⁻¹,,
C10U A12U G43C C58U,< 1e-05 s⁻¹,,,
C8A G44C U46A,< 1e-05 s⁻¹,< 1e-05 s⁻¹,,

Variant,self-cleavage kobs at 640 uM GlcN6P (glucosamine-6-phosphate [1]),self-cleavage kobs at 2500 uM GlcN6P (glucosamine-6-phosphate [2]),self-cleavage kobs at 10000 uM GlcN6P (glucosamine-6-phosphate [3]),self-cleavage kobs at 160 uM GlcN6P (glucosamine-6-phosphate [4])
C8U U31G G40U G60U,< 1e-05 s⁻¹,< 1e-05 s⁻¹,< 1e-05 s⁻¹,
G9C U46G,< 1e-05 s⁻¹,,< 1e-05 s⁻¹,< 1e-05 s⁻¹
C11A G51U G60U,< 1e-05 s⁻¹,,< 1e-05 s⁻¹,
C10G A12U U56G C71U,< 1e-05 s⁻¹,,,
G9A G60A C68G,< 1e-05 s⁻¹,,,
C10U G13C G41C A64C,< 1e-05 s⁻¹,< 1e-05 s⁻¹,,
G9U U46G,< 1e-05 s⁻¹,< 1e-05 s⁻¹,< 1e-05 s⁻¹,< 1e-05 s⁻¹
G9U U46A,< 1e-05 s⁻¹,< 1e-05 s⁻¹,< 1e-05 s⁻¹,< 1e-05 s⁻¹
G9C C11U G13C A36C G44C,< 1e-05 s⁻¹,< 1e-05 s⁻¹,,< 1e-05 s⁻¹
A12C G32U G63U C71G,< 1e-05 s⁻¹,< 1e-05 s⁻¹,,
C10A U31G A42U,< 1e-05 s⁻¹,,,< 1e-05 s⁻¹
C8A U55G A64U,< 1e-05 s⁻¹,< 1e-05 s⁻¹,,
C10G G51A A64G,< 1e-05 s⁻¹,,,< 1e-05 s⁻¹
C10G G29C,< 1e-05 s⁻¹,,< 1e-05 s⁻¹,< 1e-05 s⁻¹
C8A G9C,< 1e-05 s⁻¹,< 1e-05 s⁻¹,< 1e-05 s⁻¹,< 1e-05 s⁻¹
C8G G41C C67G,< 1e-05 s⁻¹,< 1e-05 s⁻¹,,
C11G A39C A64U,< 1e-05 s⁻¹,,,< 1e-05 s⁻¹
C10G G32U C34U G40U G41C,< 1e-05 s⁻¹,< 1e-05 s⁻¹,,< 1e-05 s⁻¹
C8U C10U C16U G43U,< 1e-05 s⁻¹,< 1e-05 s⁻¹,,< 1e-05 s⁻¹
C11U A14U G44A,< 1e-05 s⁻¹,< 1e-05 s⁻¹,,< 1e-05 s⁻¹
C11A U56A,3.27e-05 ± 1e-05 s⁻¹,7.89e-05 ± 1.5e-05 s⁻¹,0.000118 ± 1.3e-05 s⁻¹,
C10A G44U A48U U55A,< 1e-05 s⁻¹,< 1e-05 s⁻¹,,
C11G G29C G32C,< 1e-05 s⁻¹,< 1e-05 s⁻¹,,< 1e-05 s⁻¹
C11G G13C,< 1e-05 s⁻¹,< 1e-05 s⁻¹,< 1e-05 s⁻¹,
C8U C11A G13C G51A G59C,< 1e-05 s⁻¹,< 1e-05 s⁻¹,,
